Source: the antibiotic and cytotoxicity screens of Wong et al. (2023)
Some of the results follow.

These compounds were tested on S. aureus RN4220 (assay: growth inhibition call (relative growth <= 0.2)). Conditions: 50 µM.
`N[C@@H](CN1C=CC(=O)C(=O)C1)C(=O)O` was tested, and the growth inhibition call was “inactive”. For `O=C(C[C@@H]1CC[C@@H]2[C@H](COC[C@H](O)CN2C(=O)c2ccc(F)cc2)O1)NCCCN1CCOCC1`, the growth inhibition call was “inactive”. In the case of `Cc1cc(Cl)ccc1OCCN1CCN(C(=O)[C@H]2CC[C@@H](N)C2)CC1`, the growth inhibition call was “inactive”. In the case of `C[C@H]1CN([C@@H](C)CO)C(=O)Cc2cc(NC(=O)Nc3cccc4ccccc34)ccc2O[C@@H]1CN(C)C(=O)Nc1cccc2ccccc12`, the growth inhibition call was “inactive”. For `C[C@@H]1CN([C@H](C)CO)C(=O)c2cccc(NC(=O)Nc3ccc(C(F)(F)F)cc3)c2O[C@H]1CN(C)C(=O)Nc1ccc(C(F)(F)F)cc1`, the growth inhibition call was “inactive”. `Cc1noc(C)c1NC(=O)Nc1ccc2c(c1)C(=O)N([C@H](C)CO)C[C@@H](C)[C@H](CN(C)Cc1ccc3c(c1)OCO3)OCCCC[C@H](C)O2` was tested, and the growth inhibition call was “inactive”. `O=C(C[C@@H]1CC[C@@H]2NC[C@@H](O)COC[C@H]2O1)NCCN1CCCCC1` was tested, and the growth inhibition call was “inactive”. `NNC(=O)CNC(=O)[C@H]1COc2ccccc2O1` was tested, and the growth inhibition call was “inactive”. `CC(C)NC(=O)N(C)C[C@@H]1OCCCC[C@H](C)Oc2ccc(NC(=O)Nc3ccc(F)cc3)cc2C(=O)N([C@@H](C)CO)C[C@@H]1C` was tested, and the growth inhibition call was “inactive”. In the case of `Cc1ccc(S(=O)(=O)N(C)C[C@H]2Oc3ccc(NC(=O)c4ccncc4)cc3CC(=O)N([C@@H](C)CO)C[C@@H]2C)cc1`, the growth inhibition call was “inactive”. `Cc1noc(C)c1S(=O)(=O)N(C)C[C@@H]1Oc2ccc(NS(=O)(=O)c3ccccc3)cc2CC(=O)N([C@H](C)CO)C[C@@H]1C` was tested, and the growth inhibition call was “inactive”. With `C[C@H]1CCCCO[C@H](CN(C)C(=O)Nc2cccc3ccccc23)[C@@H](C)CN([C@@H](C)CO)C(=O)c2cc(NC(=O)C3CCCCC3)ccc2O1` the growth inhibition call was “inactive”. In the case of `Cl.Nc1ccn(C2OC(CO)C(O)C2(F)F)c(=O)n1` (stereo not given), the growth inhibition call was “active”. For `C[C@@H]1CN([C@H](C)CO)C(=O)c2cc(NC(=O)Nc3ccc(C(F)(F)F)cc3)ccc2O[C@@H](C)CCCCO[C@H]1CN(C)C`, the growth inhibition call was “inactive”. With `C[C@@H]1CCCCO[C@@H](CN(C)S(=O)(=O)c2ccccc2)[C@H](C)CN([C@@H](C)CO)C(=O)c2cc(NC(=O)C3CCCCC3)ccc2O1` the growth inhibition call was “inactive”. For `C[C@H](CO)N1C[C@H](C)[C@@H](CN(C)C(=O)c2cccc(F)c2)Oc2cc(-c3cccnc3)ccc2S1(=O)=O`, the growth inhibition call was “inactive”. For `CC(NCCCc1cccc(C(F)(F)F)c1)c1cccc2ccccc12.Cl` (stereo not given), the growth inhibition call was “active”. For `COc1cccc2c1C(=O)c1c(O)c3c(c(O)c1C2=O)CC(O)(C(C)=O)CC3OC1CC(N)C(O)C(C)O1.Cl` (stereo not given), the growth inhibition call was “inactive”. For `C[C@@H]1CN([C@H](C)CO)C(=O)c2cccc(NS(C)(=O)=O)c2O[C@H]1CN(C)S(=O)(=O)c1ccc(F)cc1`, the growth inhibition call was “inactive”. `CN1CCN(C(=O)C[C@H]2CC[C@@H]3[C@H](COC[C@H](O)CN3Cc3ccc4c(c3)OCO4)O2)CC1` was tested, and the growth inhibition call was “inactive”. With `C[C@@H]1CN([C@H](C)CO)C(=O)c2cccc(NC(=O)Nc3ccc(C(F)(F)F)cc3)c2O[C@H]1CN(C)C(=O)Nc1cccc2ccccc12` the growth inhibition call was “inactive”. With `N=C(N)S/C=C\C(=O)O` the growth inhibition call was “inactive”. In the case of `CNC(=O)C[C@H]1CC[C@@H]2[C@H](COC[C@@H](O)CN2C(=O)Nc2ccc3c(c2)OCO3)O1`, the growth inhibition call was “inactive”. In the case of `C[C@H]1CN([C@@H](C)CO)C(=O)c2cccc(NC(=O)c3ccncc3)c2O[C@@H]1CN(C)S(=O)(=O)c1ccc(F)cc1`, the growth inhibition call was “inactive”. For `C[C@@H]1CN([C@H](C)CO)C(=O)Cc2cc(NC(=O)NC3CCCCC3)ccc2O[C@@H]1CN(C)C(=O)Nc1cccc2ccccc12`, the growth inhibition call was “inactive”. With `COc1ccc(S(=O)(=O)N(C)C[C@@H]2Oc3ccc(NS(=O)(=O)c4c(C)noc4C)cc3C(=O)N([C@H](C)CO)C[C@H]2C)cc1` the growth inhibition call was “inactive”. `C[C@@H]1CN([C@H](C)CO)C(=O)Cc2cc(N(C)C)ccc2O[C@@H]1CN(C)C(=O)Nc1ccc2c(c1)OCO2` was tested, and the growth inhibition call was “inactive”. `O=C(C[C@@H]1CC[C@H]2[C@@H](COC[C@H](O)CN2Cc2cc(F)ccc2F)O1)N[C@@H]1CCN(Cc2ccccc2)C1` was tested, and the growth inhibition call was “inactive”. With `Cc1noc(C)c1S(=O)(=O)N(C)C[C@@H]1Oc2ccc(NS(=O)(=O)c3ccccc3)cc2CC(=O)N([C@@H](C)CO)C[C@@H]1C` the growth inhibition call was “inactive”. In the case of `COc1cc(-c2coc3cc(OC4OC(CO)C(O)C(O)C4O)c(OC)c(O)c3c2=O)cc(O)c1OC` (stereo not given), the growth inhibition call was “inactive”. With `C[C@H]1CN([C@@H](C)CO)C(=O)c2cccc(NS(=O)(=O)c3ccc(Cl)cc3)c2O[C@@H]1CN(C)Cc1ccc(-c2ccccc2)cc1` the growth inhibition call was “inactive”. `COc1cccc(C#Cc2ccc3c(c2)O[C@@H](CN(C)C(C)=O)[C@@H](C)CN([C@H](C)CO)S3(=O)=O)c1` was tested, and the growth inhibition call was “inactive”. `C[C@@H]1CN([C@@H](C)CO)C(=O)c2cc(NC(=O)CCC(F)(F)F)ccc2O[C@H]1CN(C)Cc1ccc(Oc2ccccc2)cc1` was tested, and the growth inhibition call was “inactive”. In the case of `C[C@@H]1CN([C@H](C)CO)C(=O)CCCn2nncc2CO[C@H]1CN(C)S(=O)(=O)c1ccc2c(c1)OCCCO2`, the growth inhibition call was “inactive”. With `CC(C)[C@@H]1COCc2cnnn2CCC[C@H](C)C(=O)N[C@H](C(C)C)COCc2cnnn2CCC[C@H](C)C(=O)N1` the growth inhibition call was “inactive”. `C[C@H]1CN([C@@H](C)CO)C(=O)c2cc(NC(=O)Nc3ccccc3)ccc2O[C@@H]1CN(C)C(=O)Nc1ccc(C(F)(F)F)cc1` was tested, and the growth inhibition call was “inactive”. With `Cc1ccc(S(=O)(=O)N2CCN(CC(=O)N/N=C/c3ccccn3)CC2)cc1` the growth inhibition call was “inactive”. For `C[C@H]1CCCCO[C@H](CN(C)C(=O)CCCN(C)C)[C@@H](C)CN([C@@H](C)CO)C(=O)c2cc(NC(=O)Nc3cccc4ccccc34)ccc2O1`, the growth inhibition call was “inactive”. In the case of `Cc1ccc(S(=O)(=O)Nc2ccc3c(c2)C(=O)N([C@H](C)CO)C[C@H](C)[C@@H](CN(C)Cc2ccc(Cl)c(Cl)c2)OCCCC[C@@H](C)O3)cc1`, the growth inhibition call was “inactive”. With `C[C@@H]1CN([C@@H](C)CO)C(=O)c2cc(NC(=O)C3CC3)ccc2O[C@H]1CN(C)C(=O)NC1CCCCC1` the growth inhibition call was “inactive”.
